Laboratory results: the BET-seq Pho4 binding data (Le et al. 2018)
Some of the results follow. Values were computed here from the reads of four pooled replicates and scatter widely.

biological target: T1, Pho4 (S. cerevisiae) (UniProt P07270); experiment: relative binding free energy (BET-seq); higher = weaker binding; conditions: reference: library average
T1 sequence: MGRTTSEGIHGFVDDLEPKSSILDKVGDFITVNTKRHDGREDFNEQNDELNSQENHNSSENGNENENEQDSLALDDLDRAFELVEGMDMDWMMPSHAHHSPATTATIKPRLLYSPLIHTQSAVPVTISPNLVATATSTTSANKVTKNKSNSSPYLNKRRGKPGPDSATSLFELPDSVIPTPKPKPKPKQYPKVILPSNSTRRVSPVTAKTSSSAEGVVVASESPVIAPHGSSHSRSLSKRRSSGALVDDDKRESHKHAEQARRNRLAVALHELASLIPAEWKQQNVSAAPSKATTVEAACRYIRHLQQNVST

Sequence | relative binding free energy [kcal/mol]
TTGTACACGTGAGAGG | 0.33
AGAGGCACGTGTTACA | 0.03
AGAATCACGTGATTGT | 0.34
TGAATCACGTGGGCGA | 0.07
GTGGTCACGTGGGTCG | 0.02
TTCCTCACGTGGTGTT | 0.16
ATAGGCACGTGAGGTA | 0.09
AGTATCACGTGGGGAT | 0.04
TCTTTCACGTGAGTCT | 0.43
AGTCTCACGTGGGGGA | 0.08
TCGTTCACGTGGCGGG | 0.24
GCAAGCACGTGGGGTA | -0.24
AGGGACACGTGGGAAG | -0.04
ATCGTCACGTGCTGGG | 0.14
GCTGGCACGTGTGTAG | -0.01
ATAAACACGTGAAGGT | 0.39
AGGGACACGTGTTGAT | 0.06
GGGTGCACGTGGCGCG | -0.14
AAAGGCACGTGAGGGG | 0.1
AGGGACACGTGGTTTT | 0.08
TTACGCACGTGGGAGT | -0.3
GGGAGCACGTGAATGT | 0.22
GTGTGCACGTGAAGAG | 0.27

Sequence | relative binding free energy [kcal/mol]
TAGTACACGTGAGTAA | 0.34
CTCGGCACGTGAAAGG | 0.35
AGCTCCACGTGGGGGG | -0.15
AGTGACACGTGCATGG | -0.16
GGTTTCACGTGAACTT | 0.55
CAGGACACGTGGGAGG | 0.01
TCTGTCACGTGAAGTT | 0.24
TTGAGCACGTGATGTA | 0.04
TGGTTCACGTGGATAC | 0.21
CAATTCACGTGGGGGT | 0.19
TCTAGCACGTGATTGT | 0.07
GTGTGCACGTGCGGGC | -0.04
TATGTCACGTGGGAAT | 0.07
TTTATCACGTGTCGGC | 0.28
CTTATCACGTGTGATG | 0.09
TGGTGCACGTGGGTCC | -0.14
CTTATCACGTGATGTT | 0.21
GGGTCCACGTGGGGGC | 0.01
AAAGGCACGTGGGTTT | -0.26
TGAATCACGTGGTTGG | 0.2
TGGTGCACGTGTTTGT | -0.01
TGTTACACGTGATGGT | 0.19
ACGGTCACGTGCGTTT | 0.1

Sequence | relative binding free energy [kcal/mol]
CAGGACACGTGCGGGG | -0.08
TAAGCCACGTGAGTTT | 0.19
CGAGGCACGTGGTTTG | -0.25
TTTGTCACGTGAGTGG | 0.27
TTTTTCACGTGTTTAG | 0.27
GTGAGCACGTGTACGG | -0.07
GTGGGCACGTGGTAGC | -0.12
GTGATCACGTGCGAGT | 0.09
TTGCTCACGTGGATTA | 0.27
TTTATCACGTGATTGG | 0.2
CAGTGCACGTGTAGGT | -0.06
CGGGACACGTGTGTCG | 0.04
ATGTCCACGTGAAGTT | 0.26
CTTATCACGTGGGCGG | -0.03
GGGGGCACGTGAACTT | 0.13
AATGCCACGTGGTGGT | -0.11
TAGATCACGTGTCGGA | 0.25
TGTAACACGTGTGGAG | -0.02
CATGTCACGTGAGTTA | 0.3
AAATGCACGTGGCTGG | -0.05
TGGACCACGTGGCGGG | -0.06
GGGGACACGTGTAAGG | 0.08
CGTTGCACGTGATCTT | 0.12

Sequence | relative binding free energy [kcal/mol]
TTAGGCACGTGGTGCA | -0.31
TGGTTCACGTGTCATA | 0.26
TTATACACGTGACATT | 0.24
AGTTGCACGTGCGTAT | -0.07
GAGGTCACGTGGTCGG | 0.21
TTTGGCACGTGGCAAT | -0.09
TGGCTCACGTGGGGGC | 0.04
CATTACACGTGTGTAT | 0.05
ATGAGCACGTGATTTA | -0.02
TAAGGCACGTGCTTGG | -0.19
AGGGTCACGTGGTCTC | 0.13
ACGTTCACGTGAAGGG | 0.38
AGGTACACGTGGCAGG | -0.05
AGATTCACGTGGTGGG | 0.19
ATGAGCACGTGGAAAG | -0.01
ATGGGCACGTGTATGT | -0.09
GGTGGCACGTGCAAGC | 0.09
CGTGTCACGTGCGGTG | 0.07
TGTGCCACGTGGTTGG | -0.07
GAGAGCACGTGGTGTA | -0.23
GGTCACACGTGAAGTG | 0.25
GTGGGCACGTGGGGAG | -0.1
AAGTGCACGTGCGTGT | -0.16

Sequence | relative binding free energy [kcal/mol]
GTGCGCACGTGGGGGT | -0.22
GATTGCACGTGGTAGT | -0.01
CGTAGCACGTGCGGTT | -0.06
TATTTCACGTGGTGTG | 0.13
GTGGGCACGTGGGCTT | -0.11
ATCGGCACGTGGTGTG | -0.21
TGAGTCACGTGTCGTG | 0.13
TTTTACACGTGCTAGT | -0.07
TATCGCACGTGATGTT | 0.07
GTCGACACGTGTGTAG | 0.09
ATATGCACGTGGTGTG | -0.1
TAGAGCACGTGCGTTT | -0.07
TTGTACACGTGTTGTA | 0.06
TTGCTCACGTGGTCTA | 0.14
AGGTCCACGTGATGTG | 0.07
TTTTGCACGTGCTGGG | -0.04
TATTGCACGTGCTTTG | -0.2
GTCGGCACGTGTAGTT | 0.08
AAGGTCACGTGTATTT | 0.06
TGAGTCACGTGGAGTA | 0.11
AATGTCACGTGATGCA | 0.2
GCTTTCACGTGTTGCT | 0.27
CATGTCACGTGTACGG | 0.13
